# The list shows a part of the results. Most values come without repeats; read them as rough.
# Legend:
# Experiment in all cases: cell count relative to DMSO control; melanoma cells; higher = more viable cells
# Conditions in all cases: library dose: standard library concentration; 72 h
# 501Mel = test system: 501Mel
# A101D = test system: A101D
# A2058 = test system: A2058
# A375 = test system: A375
# 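Further: cells treated in 1,536-well plates, then fixed and DAPI-stained, with nuclei counted from automated high-throughput microscope images.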
Structure (SMILES),cell count (501Mel) [%],cell count (A101D) [%],cell count (A2058) [%],cell count (A375) [%]
"CN1CCN(c2ccc3nc(-c4c(N)c5c(F)cccc5[nH]c4=O)[nH]c3c2)CC1 [Dovitinib] + O=c1cc(-c2cccc3c2Sc2ccccc2S3)oc(N2CCOCC2)c1 [KU55933] (first compound 0.5 µM, partner dose 5 µM)",86.6,55.8,21.3,78.5
"CS(=O)(=O)CCNCc1ccc(-c2ccc3ncnc(Nc4ccc(OCc5cccc(F)c5)c(Cl)c4)c3c2)o1 [lapatinib] + CCCCCCCCCCCC1=C(O)C(=O)C=C(O)C1=O [Embelin] (first compound 4 µM, partner dose 6 µM)",64,76.4,80.2,118
"CS(=O)(=O)CCNCc1ccc(-c2ccc3ncnc(Nc4ccc(OCc5cccc(F)c5)c(Cl)c4)c3c2)o1 [lapatinib] + Cn1cncc1[C@@](N)(c1ccc(Cl)cc1)c1ccc2c(c1)c(-c1cccc(Cl)c1)cc(=O)n2C [tipifarnib] (first compound 4 µM, partner dose 0.05 µM)",,73.9,74.6,95.4
"CNC(=O)c1cc(Oc2ccc(NC(=O)Nc3ccc(Cl)c(C(F)(F)F)c3)cc2)ccn1 [sorafenib] + CC(C)(C)c1cnc(CSc2cnc(NC(=O)C3CCNCC3)s2)o1 [SNS-032] (first compound 2 µM, partner dose 0.05 µM)",,75.7,78.5,93.7
"CN1CCN(c2ccc3nc(-c4c(N)c5c(F)cccc5[nH]c4=O)[nH]c3c2)CC1 [Dovitinib] + Cc1ccc(NC(=O)c2cccc(N(C)C)c2)cc1NC(=O)c1ccc(O)cc1 [ZM336372] (first compound 0.5 µM, partner dose 10 µM)",,58.4,26.9,57
"CN1CCN(c2ccc3nc(-c4c(N)c5c(F)cccc5[nH]c4=O)[nH]c3c2)CC1 [Dovitinib] + Nc1ccn([C@@H]2O[C@H](CO)[C@@H](O)C2(F)F)c(=O)n1 [gemcitabine] (first compound 0.5 µM, partner dose 0.002 µM)",,58.8,22,75.5
"CNC(=O)c1cc(Oc2ccc(NC(=O)Nc3ccc(Cl)c(C(F)(F)F)c3)cc2)ccn1 [sorafenib] + C#Cc1cccc(Nc2ncnc3cc(OCCOC)c(OCCOC)cc23)c1 [erlotinib] (first compound 2 µM, partner dose 4 µM)",,63.5,74.8,123
"CNC(=O)c1cc(Oc2ccc(NC(=O)Nc3ccc(Cl)c(C(F)(F)F)c3)cc2)ccn1 [sorafenib] + COCC[n+]1c2c(n(Cc3cnccn3)c1C)C(=O)c1ccccc1C2=O [YM155] (first compound 2 µM, partner dose 0.002 µM)",,76.7,26.7,117
"C=CCNC1=C2C[C@@H](C)C[C@H](OC)[C@H](O)[C@@H](C)/C=C(\C)[C@H](OC(N)=O)[C@@H](OC)/C=C\C=C(/C)C(=O)NC(=CC1=O)C2=O [Tanespimycin] + C[C@]1(c2nc3c(C(N)=O)cccc3[nH]2)CCCN1 [Veliparib] (first compound 0.01 µM, partner dose 7 µM)",,73.4,53.2,91.3
"CS(=O)(=O)CCNCc1ccc(-c2ccc3ncnc(Nc4ccc(OCc5cccc(F)c5)c(Cl)c4)c3c2)o1 [lapatinib] + C=CCn1c(=O)c2cnc(Nc3ccc(N4CCN(C)CC4)cc3)nc2n1-c1cccc(C(C)(C)O)n1 [MK1775] (first compound 4 µM, partner dose 0.1 µM)",,54.3,77.6,80.4
"CNC(=O)c1cc(Oc2ccc(NC(=O)Nc3ccc(Cl)c(C(F)(F)F)c3)cc2)ccn1 [sorafenib] + Nc1nc(F)nc2c1ncn2[C@@H]1O[C@H](CO)[C@@H](O)[C@@H]1O [fludarabine] (first compound 2 µM, partner dose 1 µM)",,101,76.6,68.2
"C[C@@H](Oc1cc(-c2cnn(C3CCNCC3)c2)cnc1N)c1c(Cl)ccc(F)c1Cl [Crizotinib] + O=C(O)[C@@H]1[O][Sb](=[O])([O][Sb]2(=[O])[O][C@H]([C@H](O)CO)[C@H](O)[C@H](C(=O)O)[O]2)[O][C@H]([C@H](O)CO)[C@@H]1O [stibogluconate] (first compound 1 µM, partner dose 10 µM)",,106,78.5,114
"CNC(=O)c1cc(Oc2ccc(NC(=O)Nc3ccc(Cl)c(C(F)(F)F)c3)cc2)ccn1 [sorafenib] + Nc1ccn([C@@H]2O[C@H](CO)[C@@H](O)C2(F)F)c(=O)n1 [gemcitabine] (first compound 2 µM, partner dose 0.002 µM)",,79.5,67.6,104
"C=CCNC1=C2C[C@@H](C)C[C@H](OC)[C@H](O)[C@@H](C)/C=C(\C)[C@H](OC(N)=O)[C@@H](OC)/C=C\C=C(/C)C(=O)NC(=CC1=O)C2=O [Tanespimycin] + Cn1c(Nc2ccc(C(F)(F)F)cc2)nc2cc(Oc3ccnc(-c4ncc(C(F)(F)F)[nH]4)c3)ccc21 [CHIR265] (first compound 0.01 µM, partner dose 0.4 µM)",,54.2,47.6,89.4
"C[C@@H](Oc1cc(-c2cnn(C3CCNCC3)c2)cnc1N)c1c(Cl)ccc(F)c1Cl [Crizotinib] + O=C(Nc1ccccc1)c1cc([N+](=O)[O-])ccc1Cl [GW9662] (first compound 1 µM, partner dose 10 µM)",,68.9,81.4,148
"C=CCNC1=C2C[C@@H](C)C[C@H](OC)[C@H](O)[C@@H](C)/C=C(\C)[C@H](OC(N)=O)[C@@H](OC)/C=C\C=C(/C)C(=O)NC(=CC1=O)C2=O [Tanespimycin] + NCC(=O)Nc1ccc(-n2nc(C(F)(F)F)cc2-c2ccc3c(ccc4ccccc43)c2)cc1 [OSU03012] (first compound 0.01 µM, partner dose 5 µM)",,87,111,64.6
"CN1CCN(c2ccc3nc(-c4c(N)c5c(F)cccc5[nH]c4=O)[nH]c3c2)CC1 [Dovitinib] + Cc1cc(N2CCOCC2)cc2[nH]c(-c3c(NC[C@@H](O)c4cccc(Cl)c4)cc[nH]c3=O)nc12 [BMS536924] (first compound 0.5 µM, partner dose 1 µM)",,51.3,35.3,70.8
"C=CCNC1=C2C[C@@H](C)C[C@H](OC)[C@H](O)[C@@H](C)/C=C(\C)[C@H](OC(N)=O)[C@@H](OC)/C=C\C=C(/C)C(=O)NC(=CC1=O)C2=O [Tanespimycin] + Cc1ccc(NC(=O)c2cccc(N(C)C)c2)cc1NC(=O)c1ccc(O)cc1 [ZM336372] (first compound 0.01 µM, partner dose 10 µM)",,81.2,103,82.3
"C[C@@H](Oc1cc(-c2cnn(C3CCNCC3)c2)cnc1N)c1c(Cl)ccc(F)c1Cl [Crizotinib] + CC(C)(C)c1cnc(CSc2cnc(NC(=O)C3CCNCC3)s2)o1 [SNS-032] (first compound 1 µM, partner dose 0.05 µM)",,60.6,73.4,104
"CNC(=O)c1cc(Oc2ccc(NC(=O)Nc3ccc(Cl)c(C(F)(F)F)c3)cc2)ccn1 [sorafenib] + Cc1nc(Nc2ncc(C(=O)Nc3c(C)cccc3Cl)s2)cc(N2CCN(CCO)CC2)n1 [dasatanib] (first compound 2 µM, partner dose 0.02 µM)",,91,75.8,58
"C[C@@H](Oc1cc(-c2cnn(C3CCNCC3)c2)cnc1N)c1c(Cl)ccc(F)c1Cl [Crizotinib] + CO[C@H]1C[C@@H]2CC[C@@H](C)[C@@](O)(O2)C(=O)C(=O)N2CCCC[C@H]2C(=O)O[C@H]([C@H](C)C[C@@H]2CC[C@@H](OCCO)[C@H](OC)C2)CC(=O)[C@H](C)/C=C(\C)[C@@H](O)[C@@H](OC)C(=O)[C@H](C)C[C@H](C)/C=C/C=C/C=C/1C [everolimus] (first compound 1 µM, partner dose 0.1 µM)",,76.5,61.6,104
"CNC(=O)c1cc(Oc2ccc(NC(=O)Nc3ccc(Cl)c(C(F)(F)F)c3)cc2)ccn1 [sorafenib] + O=C(O)c1ccc2c(c1)nc(Nc1cccc(Cl)c1)c1ccncc12 [CX4945] (first compound 2 µM, partner dose 2 µM)",,81.2,97.4,93.1
"CNC(=O)c1cc(Oc2ccc(NC(=O)Nc3ccc(Cl)c(C(F)(F)F)c3)cc2)ccn1 [sorafenib] + C[C@@H]1CCN(C(=O)CC#N)C[C@@H]1N(C)c1ncnc2[nH]ccc12 [CP690550] (first compound 2 µM, partner dose 5 µM)",,104,98.1,142
"CS(=O)(=O)CCNCc1ccc(-c2ccc3ncnc(Nc4ccc(OCc5cccc(F)c5)c(Cl)c4)c3c2)o1 [lapatinib] + Cc1nc(Nc2ncc(C(=O)Nc3c(C)cccc3Cl)s2)cc(N2CCN(CCO)CC2)n1 [dasatanib] (first compound 4 µM, partner dose 0.02 µM)",,58.9,71.1,103
"CNC(=O)c1cc(Oc2ccc(NC(=O)Nc3ccc(Cl)c(C(F)(F)F)c3)cc2)ccn1 [sorafenib] + NCC(=O)Nc1ccc(-n2nc(C(F)(F)F)cc2-c2ccc3c(ccc4ccccc43)c2)cc1 [OSU03012] (first compound 2 µM, partner dose 5 µM)",,118,89.8,55
"CN1CCN(c2ccc3nc(-c4c(N)c5c(F)cccc5[nH]c4=O)[nH]c3c2)CC1 [Dovitinib] + CN(C)S(=O)(=O)c1ccc2c(c1)/C(=C/c1cc3c([nH]1)CCCC3)C(=O)N2 [SU6656] (first compound 0.5 µM, partner dose 2 µM)",,58.9,30.3,68.3
"C[C@@H](Oc1cc(-c2cnn(C3CCNCC3)c2)cnc1N)c1c(Cl)ccc(F)c1Cl [Crizotinib] + Cn1cncc1[C@@](N)(c1ccc(Cl)cc1)c1ccc2c(c1)c(-c1cccc(Cl)c1)cc(=O)n2C [tipifarnib] (first compound 1 µM, partner dose 0.05 µM)",,67.9,79.5,73
"C[C@@H](Oc1cc(-c2cnn(C3CCNCC3)c2)cnc1N)c1c(Cl)ccc(F)c1Cl [Crizotinib] + O=C(CCCCCCC(=O)Nc1ccccc1)NO [vorinostat] (first compound 1 µM, partner dose 0.4 µM)",,80.9,69.9,107
"C=CCNC1=C2C[C@@H](C)C[C@H](OC)[C@H](O)[C@@H](C)/C=C(\C)[C@H](OC(N)=O)[C@@H](OC)/C=C\C=C(/C)C(=O)NC(=CC1=O)C2=O [Tanespimycin] + Nc1cccc2c1CN(C1CCC(=O)NC1=O)C2=O [lenalidomide] (first compound 0.01 µM, partner dose 5 µM)",,63.4,63.5,140
"CS(=O)(=O)CCNCc1ccc(-c2ccc3ncnc(Nc4ccc(OCc5cccc(F)c5)c(Cl)c4)c3c2)o1 [lapatinib] + O=C(O)c1ccc2c(c1)nc(Nc1cccc(Cl)c1)c1ccncc12 [CX4945] (first compound 4 µM, partner dose 2 µM)",,44.3,71.3,70.9
